Test results: patent EP4538285A1 (Chineo Medical Technology Co., Ltd., dated 2025)

Target: T1, Tilelizumab
T1 construct: Biotin-labelled in flow cytometry; also called Tevimbra; Tislelizumab
Experiment: SPR, Biacore T200; PD1-RFc mobile phase, antibody stationary phase

Kd: 0.0135 nM
koff: 4.21e-05 s⁻¹
kon: 3.12e+06 M⁻¹ s⁻¹
B1: Seq No.1-RFc (wild-type PD-1 fused to rabbit IgG Fc) (Fc fusion)
chain: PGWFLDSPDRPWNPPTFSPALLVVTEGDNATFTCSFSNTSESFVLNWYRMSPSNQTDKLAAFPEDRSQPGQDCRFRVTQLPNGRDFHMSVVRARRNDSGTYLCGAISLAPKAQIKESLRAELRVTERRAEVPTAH
notes: also called PD1-RFc; not shown: rabbit IgG Fc (RFc) of vector pcDNA3.4-RFc
